Results as given in PubChem BioAssay AID504832 (National Center for Advancing Translational Sciences (NCATS), 2011).
Screen size: about 310,000 compounds; about 18,000 (5.8%) were called active. This list was built around the results that the source calls inconclusive (neither active nor inactive); the mix of calls is not that of the screen. The call rests on the fitted dose curve; in most records, active means well fitted inhibition curve with a large enough effect; inconclusive means small, poorly fitted or top-dose-only effect, or another doubt; inactive means no such curve, though single readings can be large or run the other way. No potency is given beside an inconclusive call; the fits are too rough.

Assay: Primary qHTS for delayed death inhibitors of the malarial parasite plastid, 48 hour incubation
Conditions: P. falciparum luciferase growth in erythrocytes; series mostly up to 28.7 µM; activity change, negative = inhibition: at the top concentration
Method in brief: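 Read-out is firefly luciferase luminescence from an integrated reporter in P. falciparum, so falling signal marks reduced parasite growth. Infected erythrocytes were at 2% hematocrit and 0.1% parasitemia (final) in Albumax-supplemented RPMI 1640.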
On the % scale 0 is the no-effect control and ±100 the full control effect; potency means the concentration at half of the fitted maximal effect; tags describe the fitted curve by direction and shape.

Structure (SMILES) | Potency | activity change, negative = inhibition
Cc1ccccc1C(=O)N1CCC(C(=O)OCc2ccccc2Cl)CC1 | inconclusive [inhibitor, single point] | 
CSc1nnc(N2C(=O)C(O)=C(C(=O)c3ccco3)C2c2ccccc2F)s1 (stereo not drawn) | inconclusive [inhibitor, partial curve, poor fit] | 
O=C(c1ccc(OC2CCN(C/C=C/c3ccc(F)cc3)CC2)cc1)N1CCCC1 | active: 8.28 µM | 
CC1(C)C(=O)Nc2ccccc2N1C(=O)COc1cc(Cl)ccc1Cl | active: 11.7 µM | 
O=[N+]([O-])c1cccc(Nc2c3ccccc3nc3ccccc23)c1 | inconclusive [inhibitor, full curve] | 
CCCCCCCCCCn1c2c(c(=N)c3c1CCC3)CCC2 | active: 0.262 µM | 
CCOC(=O)c1c(N2C(=O)Nc3ccccc3N2O)n[nH]c1-c1cccc(OC)c1 |  | inactive: 57.1%
O=C(NCCc1ccccn1)c1cc(-c2ccccc2Cl)nc2ccccc12 | inconclusive [inhibitor, single point] | 
O=c1[nH]c(SCc2ccc(Cl)cc2)nc2[nH]ncc12 | inconclusive [inhibitor, single point] | 
CC1(C)Cc2c(cnn2-c2ccccc2)C(NC(=O)c2ccoc2)C1 (stereo not drawn) | active: 10.4 µM | 
OCCC#Cc1ccc(CN2CCN(C3CCCCC3)C(CCO)C2)cc1 (stereo not drawn) | inconclusive [inhibitor, single point] | 
CCOc1ccccc1NC(=O)CN(c1ccc(OC)cc1)S(=O)(=O)c1c(C)noc1C | active: 9.28 µM | 
CCCC[C@]12Cc3cc(C#N)ccc3C(O1)c1c(cc(-c3ccccc3)oc1=O)O2 | inconclusive [inhibitor, partial curve, poor fit] | 
O=C(Nc1ccccn1)c1cc2ccccc2o1 |  | inactive: 116%
O=C(O)c1[nH]c2ccccc2c1C(c1cc(Br)ccc1O)c1c(C(=O)O)[nH]c2ccccc12 | inconclusive [inhibitor, partial curve, poor fit] | 
CCN(CC)CCN(Cc1cc2cc3c(cc2[nH]c1=O)OCO3)C(=S)NCC(C)C | inconclusive [inhibitor, full curve, poor fit] | 
COc1cc(-c2cc(C(=O)Nc3c(Cl)cc(Cl)cc3Cl)c3ccccc3n2)cc(OC)c1OC | active: 13.1 µM | 
COc1ccc(NC(=O)CSc2nnc3ccc(-c4cccnc4)nn23)cc1OC | inconclusive [inhibitor, partial curve, poor fit] | 
Cc1cccc(NC(=O)CSCC(=O)Nc2cc(Cl)ccc2N2CCOCC2)c1 | active: 11.7 µM | 
CN1C/C(=C\c2ccc(N3CCOCC3)cc2)C(=O)/C(=C/c2ccc(N3CCOCC3)cc2)C1 | inconclusive [inhibitor, single point] | 
Cc1ccc(Cl)cc1NC(=O)C[n+]1ccc(Cc2ccc([N+](=O)[O-])cc2)cc1 | inconclusive [inhibitor, partial curve, poor fit] | 
COc1cc(C(CCN2CCCC(C)C2)c2c(OC)cc(OC)c3c(-c4ccccc4)cc(=O)oc23)cc(OC)c1OC (stereo not drawn) | active: 7.38 µM | 

Structure (SMILES) | Potency | activity change, negative = inhibition
CCCN1CCN(C(=O)c2ccc(-c3ccc([N+](=O)[O-])cc3)o2)CC1 | inconclusive [inhibitor, single point] | 
CCCCCCC(=O)N(O)C1CC(=O)N(c2ccc(Cl)cc2)C1=O (stereo not drawn) | active: 4.15 µM | 
Cc1ccccc1-n1ncc2c1CC(C)(C)CC2NC(=O)c1snnc1C (stereo not drawn) | inconclusive [inhibitor, single point] | 
COc1cccc(C(=O)N2CCC(CCC(=O)Nc3cccc(C)c3)CC2)c1 | inconclusive [inhibitor, full curve] | 
C#CCOCCOCCOCCNc1nc(N2CCN(C(=O)Cn3cc(CCCN=C(N)N)nn3)CC2)nc(N2CCN(C(=O)[C@H]([C@@H](C)CC)n3cc(CCCCN)nn3)CC2)n1 | inconclusive [inhibitor, single point] | 
CSCCC(NC(C)=O)C(=O)Oc1ccc2c3c(c(=O)oc2c1)CCCC3 (stereo not drawn) |  | inactive: 55.4%
O=C1CN(C(=O)COc2ccc(Br)cc2F)c2ccccc2N1 | active: 5.86 µM | 
c1ccc(Cn2nnc3c(N4CCc5ccccc5C4)ncnc32)cc1 | inconclusive [inhibitor, partial curve, poor fit] | 
COc1ccc(S(=O)(=O)N2CCOCC2)cc1NC(=O)c1cc2ccccc2o1 | inconclusive [inhibitor, single point] | 
Cc1ccc(Cl)cc1NC(=S)Nn1cnnc1 |  | inactive: 0.389%
CCOC(=O)C1(CC2CC2)CCN(Cc2cnc(-c3ccccc3C)nc2)CC1 | active: 13.1 µM | 
Cc1cccc2c1cnn2C(=O)Nc1cc(F)ccc1F |  | inactive: 263%
CC(C)C[C@@H](COc1ccccc1)N1CCN(Cc2ccccc2)CCC1=O | inconclusive [inhibitor, partial curve, poor fit] | 
CCCC(c1nnnn1Cc1ccc(OC)cc1)N1CCN(c2ccccc2OC)CC1 (stereo not drawn) | active: 10.4 µM | 
Cc1ccc(N(C(=O)Cn2nnc(-c3ccc(F)cc3)n2)C(C(=O)NC(C)(C)C)c2ccncc2)cc1 (stereo not drawn) | active: 4.65 µM | 
CCCNC(=O)C1CN(C(=O)c2nn(Cc3ccccc3)c(=O)c3ccccc23)c2ccccc2O1 (stereo not drawn) | active: 10.4 µM | 
O=C(NC1CC1)c1ccc(CN(c2ccccc2)S(=O)(=O)c2ccccc2)cc1 | inconclusive [inhibitor, full curve] | 
O=C(Nc1ccc(O)cc1)c1ccc(NC(=O)c2cccs2)cc1 |  | inactive: 37.5%
O=C1OC(OC2CCCCC2)(c2ccccc2)c2ccccc21 (stereo not drawn) | inconclusive [inhibitor, partial curve] | 
CCN(CC)S(=O)(=O)c1cccc(C(=O)N/N=C/c2ccccc2OCC(=O)O)c1 | inconclusive [inhibitor, partial curve, poor fit] | 
C/C(=N\N1CCCCCC1)c1c(O)n(C2CCCCC2)c(=O)[nH]c1=O | inconclusive [inhibitor, single point] | 
